According to PubChem BioAssay AID686979 (National Center for Advancing Translational Sciences (NCATS), 2013):
Several values for one entry are separate records, joined by “and”; a condition that tells them apart may be missing. Identical values can stand only once. The whole screen tested about 420,000 compounds, of which about 50,000 (12%) were called active. Inconclusive results, whose numbers are uncertain, are shown with a selection of clear calls. The call rests on the fitted dose curve; in most records, active means well fitted inhibition curve with a large enough effect; inconclusive means small, poorly fitted or top-dose-only effect; inactive means flat fitted curve, though single readings scatter. Potencies beside an inconclusive call are fits to weak or partial responses and may not hold up.

Experiment: qHTS for Inhibitors of human tyrosyl-DNA phosphodiesterase 1 (TDP1): qHTS in cells in presence of CPT; further: nearly all actives have a fitted effect of over 55% in size
Settings: chicken DT40 Tdp1-/-;hTDP1 cells + 20 nM CPT, ATP luminescence, 48 h; activity change, negative = growth inhibition: at 46.2 µM (top of the series)
Summary of the method: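 Chicken DT40 Tdp1-/- cells complemented with human TDP1, 400 cells/well, exposed to compounds plus 20 nM camptothecin for at least 48 h at 37 C; viability read as ATP content by CellTiter-Glo luminescence.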
On the % scale 0 is the no-effect control and ±100 the full control effect; potency means the concentration at half of the fitted maximal effect; tags describe the fitted curve by direction and shape.

Compound	Potency	activity change, negative = growth inhibition
CNc1ncnc2c1ncn2[C@H]1CN(C2CCCC2)C[C@@H](CO)O1	active: 1.64 µM	–
CC(O)(c1cccs1)C(C(=O)O)c1ccccc1 (stereo unspecified)	inconclusive: 29.1 µM [inhibitor, single point]	–
N#Cc1ccc(CSc2ccc(S(=O)(=O)N3CCCCCC3)cn2)cc1	inconclusive: 25.9 µM [inhibitor, single point]	–
COc1ccc(C[C@@H]2CN3C(=NC[C@@H]3C)N2C[C@H](C)NC(=O)c2ccc(C)c(Br)c2)cc1	active: 18.4 µM	–
O=S(=O)(Nc1ccc(-n2cnnn2)cc1)c1cccs1	inactive	–
COc1cccc(-c2csc(NC(=O)Nc3ccccc3)n2)c1	active: 7.31 µM	–
O=CNc1c(Cl)cc2c(c1Cl)Cc1cc([N+](=O)[O-])ccc1-2	active: 11.6 µM	–
COC(=O)c1ccc2[nH]cc(CCO)c2c1	inactive	–
CC(O)[C@H]1CN=C(N)N1CC1CCCCC1 (stereo partly specified)	inconclusive: 18.4 µM [inhibitor, single point]	–
CN(CC(=O)Nc1cccc(F)c1)C(=O)c1cc(-c2ccccc2)nc2ccccc12	inconclusive: 14.6 µM [inhibitor, single point]	–
CC(C)Oc1ccc(C(=O)Nc2ccc(NC(=O)c3ccco3)c(Cl)c2)cc1	inconclusive: 13 µM [inhibitor, partial curve]	–
Cc1ccc2[nH]c(CN3CCC(CO)(CC4CCCCO4)CC3)c(C)c2c1 (stereo unspecified)	inconclusive: 29.1 µM [inhibitor, single point]	–
CC(=O)NC(C)(c1ccccc1)c1nc(-c2cccc(F)c2)cs1 (stereo unspecified)	active: 29.1 µM	–
COC(=O)c1ccc(NS(=O)(=O)c2cc(-c3cc(C)no3)ccc2OC)cc1	active: 3.66 µM	–
Cc1ccc(S(=O)(=O)C2(C(=O)Nc3ccc(C)c(Cl)c3)CC2)cc1	inactive	–
CC(=O)OC[C@@H]1CN(Cc2ccccc2)C[C@H](n2cnc3c(NCc4ccc(F)cc4)ncnc32)O1	inconclusive: 29.1 µM [inhibitor, single point]	–
OCCOc1ccc(CN2CCN(CCCc3ccccc3)C(CCO)C2)cc1 (stereo unspecified)	inactive	–
CC1(C(=O)Nc2cnc3ccccc3c2)CCN1CCOc1ccccc1 (stereo unspecified)	inconclusive: 20.6 µM [inhibitor, single point]	–
COC(=O)N/N=C/c1cc(C)n(-c2cccc3ccccc23)c1C	inactive	–
CC(=O)N1C(=O)C2(C(C#N)=C(N)Oc3c2c(C)nn3-c2ccccc2)c2ccccc21 (stereo unspecified)	active: 23.1 µM	–
COc1ccc(N2CCN(CC(O)COc3ccc(C)cc3C)CC2)cc1 (stereo unspecified)	inconclusive: 16.4 µM [inhibitor, single point] and inconclusive: 23.1 µM [inhibitor, partial curve]	–
Cc1ccc(N(C(C)C(=O)N2CCOCC2)S(C)(=O)=O)cc1C (stereo unspecified)	inactive	–
Cc1ccc(CNC(=O)CCS(=O)(=O)c2cc3c(cc2Cl)NC(=O)CO3)cc1	inconclusive: 29.1 µM [inhibitor, single point]	–

Compound	Potency	activity change, negative = growth inhibition
CCOC(=O)c1[nH]c(C)c(/C(O)=C2\C(=O)C(=O)N(CCN(C)C)C2c2ccc(C)o2)c1C (stereo unspecified)	inconclusive: 29.1 µM [inhibitor, single point]	–
O=S(=O)(Nc1ccc(Br)cc1)c1cccc2cccnc12	inactive	–
CC(CCc1ccccc1)NC(=O)c1nnc(Cc2ccc(F)cc2)o1 (stereo unspecified)	inconclusive: 25.9 µM [inhibitor, partial curve]	–
O=C(N/N=C/c1ccc2c(c1)OCO2)c1ccccn1	inconclusive: 13 µM [inhibitor, single point]	–
O=C(O)CCC(=O)N1CCN(S(=O)(=O)c2ccc3ccccc3c2)CC1	inactive	–
CNC(=S)NNS(=O)(=O)c1ccc(OC)cc1OC	inconclusive: 25.9 µM [inhibitor, single point]	–
C/C(CC(=O)Nc1ccc2c(c1)OCCO2)=N\NC(=O)COc1ccc(C)cc1Br	inactive	–
CS(=O)(=O)N(CC(=O)N1CCCCCC1)c1cccc(F)c1	inactive	–
O=C(NCc1ccc(Cl)cc1)c1ccc(NC(=O)N2CC3CCCN3c3ccccc32)cc1 (stereo unspecified)	active: 16.4 µM	–
Fc1ccc(N2CCN(c3cnc4ccccc4n3)CC2)cc1	inconclusive: 8.2 µM [inhibitor, partial curve]	–
O=C(Nc1ccccc1)N(CCCN1CCOCC1)Cc1cc2cc3c(cc2[nH]c1=O)OCCO3	inconclusive: 20.6 µM [inhibitor, single point]	–
CCOC(=O)C1CCN(C(=O)Cn2c(-c3cccs3)cc3cc(Cl)ccc32)CC1	active: 14.6 µM	–
O=C(c1cc(COc2ccc(F)cc2Cl)on1)N1CCCCCC1	inconclusive: 29.1 µM [inhibitor, single point]	–
CCc1ccc(C(=O)N2CCN(c3ccc(NC(=O)c4ccco4)cc3)CC2)cc1	inconclusive: 29.1 µM [inhibitor, single point]	–
Cc1ccccc1OCC(=O)NCCS(=O)(=O)N1CCN(c2ccc(F)cc2)CC1	inconclusive: 14.6 µM [inhibitor, single point]	–
C[C@@H]1CN([C@@H](C)CO)C(=O)CCCn2cc(nn2)CO[C@H]1CN(C)S(=O)(=O)c1ccc(Cl)cc1	inactive	–
CCOC(=O)CN(Cc1ccccc1)C(C(=O)NC1CCCCC1)c1ccc(C)cc1 (stereo unspecified)	inconclusive: 23.1 µM [inhibitor, single point]	–
COc1cc(NC(=O)CSc2nc(C)c(C)c(C)n2)c(C)cc1[N+](=O)[O-]	–	inconclusive: -33.7% [inhibitor]
Cc1c(C(=O)NCc2ccccc2Cl)sc2nc(-c3ccc(F)cc3)cn12	inconclusive: 29.1 µM [inhibitor, single point]	–
CC(C)c1cc(-c2n[nH]c(=S)n2Cc2ccccc2)cs1	inactive	–
CCOC(=O)C1CCN(c2ncnc3c(C)csc23)CC1	inconclusive: 16.4 µM [inhibitor, partial curve]	–
COc1cc2c(cc1OC)C1=C(C#N)CN(CC(=O)O)CN1CC2	inconclusive: 29.1 µM [inhibitor, single point]	–
CCC(=O)N1CCc2cc(S(=O)(=O)NC(C(=O)NCc3ccccc3Cl)C(C)C)ccc21 (stereo unspecified)	inactive	–
